Experimental data as given in a collection of fitness landscapes (doi:10.1016/j.celrep.2020.107928).
In all, about 81,000 sequences were measured (“one-hybrid fitness for binding parS DNA”: median about -0.17, highest 2% from about 0.51 on). Some of the results follow.

B1: Caulobacter ParB omega fusion; a variant is named by its letters at X, in order, B8GW30 (parent)
chain: MESVVVGEPGMSEGRRGLGRGLSALLGEVDAAPAQAPGEQLGGSREAPIEILQRNPDQPRRTFREEDLEDLSNSIREKGVLQPILVRPSPDTAGEYQIVAGERAWRAAQRAGLKTVPIMVRELDDLAVLEIGIIENVQRADLNVLEEALSYKVLMEKFERTQENIAQTIGKSXSHVANXMRLLXLPDEVQSYLVSGELTAXHARAIAAAADPVALAKQIIEGGLSVRETEALARKAPNLSAGKSKGGRPPRVKDTDTQALESDLSSVLGLDVSIDHRGSTGTLTITYATLEQLDDLCNRLTRGI

Variants of: B1
Assay: one-hybrid fitness for binding parS DNA (scaled: cognate 1, non-cognate 0); higher = stronger binding
Conditions: with parS DNA site
How it was run: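 The reporter was HIS3, with the binding site 19 bp from the promoter, in E. coli USO used for bacterial one-hybrid selection of Caulobacter ParB libraries with four specificity codons randomised. Growth was on M9 lacking histidine, with 0.1 mM IPTG and 5 mM 3-AT, for 48 hours at 37°C. Illumina sequencing covered plasmids before and after selection; three replicate libraries were pooled and variants with under 10 reads dropped. A fitness score is the log change in variant-to-wild-type read ratio, rescaled to the cognate and non-cognate references.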
For YQHC, the “one-hybrid fitness for binding parS DNA” value was at most 0.2.
GFTM was tested, and the “one-hybrid fitness for binding parS DNA” value was at most 0.2.
With YLAP the “one-hybrid fitness for binding parS DNA” value was at most 0.2.
For VRIC, the “one-hybrid fitness for binding parS DNA” value was at most 0.2.
TDIK was tested, and the “one-hybrid fitness for binding parS DNA” value was at most 0.2.
For TYWG, the “one-hybrid fitness for binding parS DNA” value was at most 0.2.
In the case of HVGK, the “one-hybrid fitness for binding parS DNA” value is reported as at most 0.2.
For QWNR, the “one-hybrid fitness for binding parS DNA” value was at most 0.2.
With GLPC the “one-hybrid fitness for binding parS DNA” value was at most 0.2.
For LRDF, the “one-hybrid fitness for binding parS DNA” value was at most 0.2.
In the case of KPMG, the “one-hybrid fitness for binding parS DNA” value is reported as at most 0.2.
ERDR was tested, and the “one-hybrid fitness for binding parS DNA” value was at most 0.2.
WSHG was tested, and the “one-hybrid fitness for binding parS DNA” value was at most 0.2.
For CTRE, the “one-hybrid fitness for binding parS DNA” value was at most 0.2.
In the case of RSDH, the “one-hybrid fitness for binding parS DNA” value is reported as at most 0.2.
In the case of DAEY, the “one-hybrid fitness for binding parS DNA” value is reported as at most 0.2.
In the case of HPGM, the “one-hybrid fitness for binding parS DNA” value is reported as at most 0.2.
For GCVR, the “one-hybrid fitness for binding parS DNA” value was at most 0.2.
With QYPM the “one-hybrid fitness for binding parS DNA” value was at most 0.2.
In the case of RKQL, the “one-hybrid fitness for binding parS DNA” value is reported as at most 0.2.
For YQTV, the “one-hybrid fitness for binding parS DNA” value was at most 0.2.
HTSV was tested, and the “one-hybrid fitness for binding parS DNA” value was at most 0.2.
For IYGL, the “one-hybrid fitness for binding parS DNA” value was at most 0.2.
CATD was tested, and the “one-hybrid fitness for binding parS DNA” value was at most 0.2.
In the case of GDVW, the “one-hybrid fitness for binding parS DNA” value is reported as at most 0.2.
GDRR was tested, and the “one-hybrid fitness for binding parS DNA” value was at most 0.2.
SHCS was tested, and the “one-hybrid fitness for binding parS DNA” value was at most 0.2.
With KVHC the “one-hybrid fitness for binding parS DNA” value was at most 0.2.
RLCS was tested, and the “one-hybrid fitness for binding parS DNA” value was 1.03.
HHNR was tested, and the “one-hybrid fitness for binding parS DNA” value was at most 0.2.
In the case of GGYR, the “one-hybrid fitness for binding parS DNA” value is reported as at most 0.2.
With KKRE the “one-hybrid fitness for binding parS DNA” value was at most 0.2.
With GFHR the “one-hybrid fitness for binding parS DNA” value was at most 0.2.
For QKLY, the “one-hybrid fitness for binding parS DNA” value was at most 0.2.
With LDPL the “one-hybrid fitness for binding parS DNA” value was at most 0.2.
For QLNI, the “one-hybrid fitness for binding parS DNA” value was at most 0.2.
In the case of RHCM, the “one-hybrid fitness for binding parS DNA” value is reported as at most 0.2.
In the case of HPYS, the “one-hybrid fitness for binding parS DNA” value is reported as at most 0.2.
With YWNT the “one-hybrid fitness for binding parS DNA” value was at most 0.2.
ILFC was tested, and the “one-hybrid fitness for binding parS DNA” value was at most 0.2.
For SAGY, the “one-hybrid fitness for binding parS DNA” value was at most 0.2.
With MPDC the “one-hybrid fitness for binding parS DNA” value was at most 0.2.
HIRE was tested, and the “one-hybrid fitness for binding parS DNA” value was at most 0.2.
In the case of TFQF, the “one-hybrid fitness for binding parS DNA” value is reported as at most 0.2.
VKVG was tested, and the “one-hybrid fitness for binding parS DNA” value was at most 0.2.
For SRWC, the “one-hybrid fitness for binding parS DNA” value was at most 0.2.
For WKFI, the “one-hybrid fitness for binding parS DNA” value was 0.205.
KRFI was tested, and the “one-hybrid fitness for binding parS DNA” value was at most 0.2.
With KKIR the “one-hybrid fitness for binding parS DNA” value was at most 0.2.
TLFE was tested, and the “one-hybrid fitness for binding parS DNA” value was at most 0.2.
In the case of QEWC, the “one-hybrid fitness for binding parS DNA” value is reported as at most 0.2.
For KYGR, the “one-hybrid fitness for binding parS DNA” value was at most 0.2.
SLGA was tested, and the “one-hybrid fitness for binding parS DNA” value was at most 0.2.
In the case of LVNS, the “one-hybrid fitness for binding parS DNA” value is reported as at most 0.2.
LHET was tested, and the “one-hybrid fitness for binding parS DNA” value was at most 0.2.
In the case of LGRI, the “one-hybrid fitness for binding parS DNA” value is reported as at most 0.2.
SMMW was tested, and the “one-hybrid fitness for binding parS DNA” value was at most 0.2.
With RKIE the “one-hybrid fitness for binding parS DNA” value was at most 0.2.
For MEPV, the “one-hybrid fitness for binding parS DNA” value was at most 0.2.
VYMG was tested, and the “one-hybrid fitness for binding parS DNA” value was at most 0.2.
In the case of RYVK, the “one-hybrid fitness for binding parS DNA” value is reported as at most 0.2.
With GSKQ the “one-hybrid fitness for binding parS DNA” value was at most 0.2.
For FDKG, the “one-hybrid fitness for binding parS DNA” value was at most 0.2.
With DSAY the “one-hybrid fitness for binding parS DNA” value was at most 0.2.
For CSIR, the “one-hybrid fitness for binding parS DNA” value was at most 0.2.
For GRQQ, the “one-hybrid fitness for binding parS DNA” value was at most 0.2.
In the case of MVLQ, the “one-hybrid fitness for binding parS DNA” value is reported as at most 0.2.
TCAK was tested, and the “one-hybrid fitness for binding parS DNA” value was at most 0.2.
For SGVR, the “one-hybrid fitness for binding parS DNA” value was at most 0.2.
With LMRC the “one-hybrid fitness for binding parS DNA” value was at most 0.2.
For LQIC, the “one-hybrid fitness for binding parS DNA” value was at most 0.2.
With YRQG the “one-hybrid fitness for binding parS DNA” value was at most 0.2.
For DNLG, the “one-hybrid fitness for binding parS DNA” value was at most 0.2.
For SFSQ, the “one-hybrid fitness for binding parS DNA” value was at most 0.2.
PVDF was tested, and the “one-hybrid fitness for binding parS DNA” value was at most 0.2.
For MMRT, the “one-hybrid fitness for binding parS DNA” value was at most 0.2.
NSNY was tested, and the “one-hybrid fitness for binding parS DNA” value was at most 0.2.
For VMHT, the “one-hybrid fitness for binding parS DNA” value was at most 0.2.
For PTRR, the “one-hybrid fitness for binding parS DNA” value was at most 0.2.
For WMSW, the “one-hybrid fitness for binding parS DNA” value was at most 0.2.
With GACS the “one-hybrid fitness for binding parS DNA” value was at most 0.2.
For CHGT, the “one-hybrid fitness for binding parS DNA” value was at most 0.2.
With ERRY the “one-hybrid fitness for binding parS DNA” value was at most 0.2.
With GRLF the “one-hybrid fitness for binding parS DNA” value was at most 0.2.
GGQG was tested, and the “one-hybrid fitness for binding parS DNA” value was at most 0.2.
For FLQV, the “one-hybrid fitness for binding parS DNA” value was at most 0.2.
VRHF was tested, and the “one-hybrid fitness for binding parS DNA” value was at most 0.2.
For RAYV, the “one-hybrid fitness for binding parS DNA” value was at most 0.2.
With RRRE the “one-hybrid fitness for binding parS DNA” value was at most 0.2.
With NEES the “one-hybrid fitness for binding parS DNA” value was at most 0.2.
NEHS was tested, and the “one-hybrid fitness for binding parS DNA” value was at most 0.2.
In the case of AKNE, the “one-hybrid fitness for binding parS DNA” value is reported as at most 0.2.
For QIII, the “one-hybrid fitness for binding parS DNA” value was at most 0.2.
For RCKV, the “one-hybrid fitness for binding parS DNA” value was at most 0.2.
In the case of SWLT, the “one-hybrid fitness for binding parS DNA” value is reported as at most 0.2.
KSKV was tested, and the “one-hybrid fitness for binding parS DNA” value was at most 0.2.
For NTHI, the “one-hybrid fitness for binding parS DNA” value was at most 0.2.
In the case of ESVF, the “one-hybrid fitness for binding parS DNA” value is reported as at most 0.2.
VPKR was tested, and the “one-hybrid fitness for binding parS DNA” value was at most 0.2.
EKCS was tested, and the “one-hybrid fitness for binding parS DNA” value was at most 0.2.
For FVWR, the “one-hybrid fitness for binding parS DNA” value was at most 0.2.
FPAS was tested, and the “one-hybrid fitness for binding parS DNA” value was at most 0.2.
HSLQ was tested, and the “one-hybrid fitness for binding parS DNA” value was at most 0.2.
For QPSG, the “one-hybrid fitness for binding parS DNA” value was at most 0.2.
For TNSC, the “one-hybrid fitness for binding parS DNA” value was at most 0.2.
With NAST the “one-hybrid fitness for binding parS DNA” value was at most 0.2.
For ESLL, the “one-hybrid fitness for binding parS DNA” value was at most 0.2.
With HRCV the “one-hybrid fitness for binding parS DNA” value was at most 0.2.
In the case of PLRY, the “one-hybrid fitness for binding parS DNA” value is reported as at most 0.2.
With CKWG the “one-hybrid fitness for binding parS DNA” value was at most 0.2.
QYCA was tested, and the “one-hybrid fitness for binding parS DNA” value was at most 0.2.
For YFQC, the “one-hybrid fitness for binding parS DNA” value was at most 0.2.
In the case of SPGC, the “one-hybrid fitness for binding parS DNA” value is reported as at most 0.2.
In the case of QIHR, the “one-hybrid fitness for binding parS DNA” value is reported as at most 0.2.
With NNMA the “one-hybrid fitness for binding parS DNA” value was at most 0.2.
In the case of CAVD, the “one-hybrid fitness for binding parS DNA” value is reported as at most 0.2.
In the case of QLHA, the “one-hybrid fitness for binding parS DNA” value is reported as at most 0.2.
CLLW was tested, and the “one-hybrid fitness for binding parS DNA” value was at most 0.2.
In the case of SDNM, the “one-hybrid fitness for binding parS DNA” value is reported as at most 0.2.
In the case of LEPR, the “one-hybrid fitness for binding parS DNA” value is reported as at most 0.2.
VAPI was tested, and the “one-hybrid fitness for binding parS DNA” value was at most 0.2.
In the case of LCIR, the “one-hybrid fitness for binding parS DNA” value is reported as at most 0.2.
RKTN was tested, and the “one-hybrid fitness for binding parS DNA” value was 0.336.
With LSSI the “one-hybrid fitness for binding parS DNA” value was at most 0.2.
YAVT was tested, and the “one-hybrid fitness for binding parS DNA” value was at most 0.2.
In the case of TRFE, the “one-hybrid fitness for binding parS DNA” value is reported as at most 0.2.
For FQSM, the “one-hybrid fitness for binding parS DNA” value was at most 0.2.
In the case of PDNF, the “one-hybrid fitness for binding parS DNA” value is reported as at most 0.2.
CTVL was tested, and the “one-hybrid fitness for binding parS DNA” value was at most 0.2.
With PWSA the “one-hybrid fitness for binding parS DNA” value was at most 0.2.
For PCQT, the “one-hybrid fitness for binding parS DNA” value was at most 0.2.
With LRCT the “one-hybrid fitness for binding parS DNA” value was at most 0.2.
GTNK was tested, and the “one-hybrid fitness for binding parS DNA” value was at most 0.2.
YIMW was tested, and the “one-hybrid fitness for binding parS DNA” value was at most 0.2.
With PFDC the “one-hybrid fitness for binding parS DNA” value was at most 0.2.
In the case of LFAS, the “one-hybrid fitness for binding parS DNA” value is reported as at most 0.2.
KPFG was tested, and the “one-hybrid fitness for binding parS DNA” value was at most 0.2.
For NRQF, the “one-hybrid fitness for binding parS DNA” value was at most 0.2.
In the case of PGGT, the “one-hybrid fitness for binding parS DNA” value is reported as at most 0.2.
With HTLT the “one-hybrid fitness for binding parS DNA” value was at most 0.2.
For GTIS, the “one-hybrid fitness for binding parS DNA” value was at most 0.2.
For TWFN, the “one-hybrid fitness for binding parS DNA” value was at most 0.2.
RKTQ was tested, and the “one-hybrid fitness for binding parS DNA” value was at most 0.2.
With CDDV the “one-hybrid fitness for binding parS DNA” value was at most 0.2.
In the case of RNGI, the “one-hybrid fitness for binding parS DNA” value is reported as at most 0.2.
With MAWT the “one-hybrid fitness for binding parS DNA” value was at most 0.2.
VAVW was tested, and the “one-hybrid fitness for binding parS DNA” value was at most 0.2.
For KWNV, the “one-hybrid fitness for binding parS DNA” value was at most 0.2.
WESK was tested, and the “one-hybrid fitness for binding parS DNA” value was at most 0.2.
RRSN was tested, and the “one-hybrid fitness for binding parS DNA” value was 0.695.
KDGS was tested, and the “one-hybrid fitness for binding parS DNA” value was at most 0.2.
In the case of EGRS, the “one-hybrid fitness for binding parS DNA” value is reported as at most 0.2.
With GKQF the “one-hybrid fitness for binding parS DNA” value was at most 0.2.
